# In PubChem BioAssay AID2546 (National Center for Advancing Translational Sciences (NCATS), 2010):
# Values joined by “and” are separate entries in the source; they are usually repeats but may differ in a detail not shown here. Identical values can stand only once. Among all 310,000 compounds or so, about 11,000 (3.5%) were called active. This list was built around the results that the source calls inconclusive (neither active nor inactive); the mix of calls is not that of the screen. The call rests on the fitted dose curve; in most records, active means well fitted inhibition curve with a large enough effect; inconclusive means small, poorly fitted or top-dose-only effect, or effect the other way; inactive means flat fitted curve, though single readings scatter. Where the call is inconclusive, the potency comes from a doubtful curve fit.
# Experiment: VP16 counterscreen qHTS for inhibitors of ROR gamma transcriptional activity;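 further: Gal4-VP16 expression switched on by copper sulfate through the metallothionein promoter; nearly all actives have a fitted effect of over 50% in size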
# Conditions: Drosophila S2 Gal4-VP16 UAS-luciferase, luminescence, 20 h; activity, negative = inhibition: at 53.6 µM (top of the series)
# On the % scale 0 is the no-effect control and ±100 the full control effect; potency means the concentration at half of the fitted maximal effect; tags describe the fitted curve by direction and shape.
Compound,Potency,"activity, negative = inhibition"
Cc1oc(-c2ccc(Cl)cc2)cc1C(=O)O,"inconclusive: 20 µM [inhibitor, partial curve]",
CN(C(=O)c1ccco1)c1nc2c(s1)CCCC2,"inconclusive: 11.2 µM [inhibitor, single point]",
O=C(Nc1ccc(N2CCCC2)cc1)c1cccc(Cl)c1,inactive,
O=C(NNc1ccc([N+](=O)[O-])cc1)c1ccccc1Cl,inactive,
CCn1c(NN)nc2sc3c(c2c1=O)CCC3,"inconclusive: 20 µM [inhibitor, single point]",
Cc1ccc(-c2cnc3c(Cl)c(C)nn3c2)cc1,"inconclusive: 2.51 µM [inhibitor, full curve, poor fit]",
O=C(Cc1ccccc1)N/N=C/C=C/c1ccccc1[N+](=O)[O-],"inconclusive: 11.2 µM [activator, single point]",
COc1cccc(C(=O)Nc2nnc(-c3ccc(F)cc3)o2)c1,active: 1.78 µM,
Cc1nc(NC(=O)CCl)sc1C(=O)N(C)C,"inconclusive: 12.6 µM [inhibitor, partial curve]",
COc1ccc(OC)c(C(=O)CSc2nc3cccnc3n2C)c1,"inconclusive: 22.4 µM [inhibitor, single point]",
CCOC(=O)c1c(C)[nH]c(C)c1C(=O)COC(=O)c1cccc(S(=O)(=O)N(CC)CC)c1,"inconclusive: 35.5 µM [inhibitor, single point]",
Cc1ccc2c(c1)C(N1CCCC1=O)CC(c1ccco1)N2 (stereo unspecified),"inconclusive: 35.5 µM [inhibitor, single point]",
Cc1ccc2cc3cc(C(=O)N4CC(C)CC(C)C4)oc3nc2c1 (stereo unspecified),"inconclusive: 35.5 µM [inhibitor, single point]",
Cc1c(CCC(=O)O)c(=O)oc2c(C)c(OCc3ccccc3Cl)ccc12,"inconclusive: 2 µM [inhibitor, full curve]",
CCc1ccc(CN(C)C(=O)CCc2nc3ccccc3n(-c3ccc(OC)cc3)c2=O)cc1,"inconclusive: 35.5 µM [inhibitor, single point]",
COc1ccc(-c2ccoc2)cc1C1C2C=CCC(C)C2C(=O)N1Cc1ccccc1 (stereo unspecified),"inconclusive: 12.6 µM [inhibitor, partial curve, poor fit]",
CCN(CC)CCC(c1ccc2c(c1)OCO2)c1c(O)cc(OC)cc1OC (stereo unspecified),"inconclusive: 35.5 µM [inhibitor, single point]",
COc1cc(/C=N/NC(=O)c2cccnc2)ccc1OS(=O)(=O)c1cc(C)ccc1C,"inconclusive: 15.8 µM [inhibitor, partial curve, poor fit]",
CCN1CCN(Cc2ccc(NC(=O)c3ccc(C)c(NC(=O)C(=O)c4c[nH]c5ccccc45)c3)cc2C(F)(F)F)CC1,"inconclusive: 17.8 µM [inhibitor, single point] and inconclusive: 20 µM [inhibitor, single point]",
CCN1C/C(=C/c2ccc(OC)c(O)c2)C(=O)/C(=C/c2ccc(OC)c(O)c2)C1,"inconclusive: 22.4 µM [inhibitor, single point]",
CN1c2ccccc2N(C)C1(C)c1cccc2ccccc12,"inconclusive: 35.5 µM [inhibitor, single point]",

Compound,Potency,"activity, negative = inhibition"
S=c1ccc2ccccc2[nH]1,"inconclusive: 17.8 µM [inhibitor, single point]",
O=C(O)CC1(CC(=O)NCc2csc(-c3cccs3)n2)CCCCC1,inactive,
CCCN1CN(c2ccccc2)C(=S)N(c2ccccc2)C1,"inconclusive: 14.1 µM [inhibitor, single point]",
CCOC(=O)c1sc2nc(Cc3ccc(Cl)cc3)[nH]c(=S)c2c1C,"inconclusive: 10 µM [inhibitor, partial curve]",
C/C(=N\Nc1ccccn1)c1ccc(N2CCOCC2)cc1,"inconclusive: 39.8 µM [inhibitor, partial curve, poor fit]",
CCSc1nnc(NC(=O)c2csc3c2CCCC3)s1,"inconclusive: 8.91 µM [inhibitor, partial curve]",
COc1cccc(Nc2nc3ccc(OC)cc3s2)c1,"inconclusive: 0.316 µM [activator, full curve, poor fit]",
COc1cc2c(cc1OC)C1O[C@](CCCCN3C(=O)c4ccccc4C3=O)(C2)Oc2cc(C)n(Cc3ccccc3)c(=O)c21,"inconclusive: 6.31 µM [inhibitor, single point]",
Cc1ccc(CSC(Nc2ccc(F)cc2)=C(C#N)C#N)cc1,active: 25.1 µM,
CCCNC(=O)OC[C@H]1O[C@H](CCO/N=C/C[C@@H]2C=C[C@H](OC(C)=O)[C@@H](COC(C)=O)O2)C=C[C@@H]1Oc1ccc(OC)cc1,"inconclusive: 17.8 µM [inhibitor, single point]",
C/C(Cn1nnc([N+](=O)[O-])n1)=N\NC(=O)c1ccccc1,"inconclusive: 35.5 µM [inhibitor, single point]",
COc1cc2c(cc1OC)[C@@H]1O[C@](CCCCN3C(=O)c4ccccc4C3=O)(C2)Oc2cc(C)n(-c3ccccc3)c(=O)c21,,inactive: -9.32% [at 10 µM]
O=C(/C=C/c1ccco1)N1CCN(c2ccccc2)CC1,"inconclusive: 35.5 µM [activator, single point]",
CN(C)c1ccc(C(C(=O)NCC2CCCO2)N(Cc2ccccc2)C(=O)c2snc(C(N)=O)c2N)cc1 (stereo unspecified),inactive,
O=C(N/N=C\C=C\c1ccc2c(c1)OCO2)c1ccc(F)cc1,active: 5.62 µM,
CCCCN(CC)CCNC(=O)c1cc2c(C)nc3ccccc3c2o1,inactive,
COc1ccccc1OCCN1C(=O)S/C(=C\c2ccco2)C1=O,"inconclusive: 25.1 µM [activator, single point]",
COc1cccc(NC(=O)C2CC(=O)N/C(=N/NC(=O)c3ccc(C)cc3)S2)c1 (stereo unspecified),active: 11.2 µM,
Cc1cc(NC(=O)NC(=O)c2ccc(F)cc2F)n[nH]1,"inconclusive: 25.1 µM [inhibitor, single point]",
CN(C)S(=O)(=O)c1cccc(NC(=O)c2cncc(Br)c2)c1,"inconclusive: 35.5 µM [inhibitor, single point]",
